# Source: ChEMBL document CHEMBL4888484, “Replenishing the malaria drug discovery pipeline: Screening and hit evaluation of the MMV Hit Generation Library 1 (HGL1) against asexual blood stage Plasmodium falciparum ,using a nano luciferase reporter read-out” (2022)
# About 540 (0.36%) of roughly 150,000 compounds showed an effect of 50% or more. The list shows a part of the results.
# System: Plasmodium falciparum
# Assay: Primary screen in NF54 nanoGlo assay, in single point, at 2uM, 72h; a lower Z score goes with more inhibition
# Assay type: functional, Erythrocyte
# Conditions: timepoint 72 hour
Structure (SMILES),% Inhibition,Z score
CCC(C)c1nc(C(C)NC(=O)CCc2ccc(Cl)s2)n[nH]1 (centres undefined),7%,-1.18
O=C(Cn1nc(-c2ccccc2)ccc1=O)N1CCN(c2ccc(F)cc2)CC1,-5%,0.7
Clc1cccc(CN2CCC(n3cncn3)CC2)c1Cl,-9%,1.23
Cc1noc(C)c1C(=O)N1CCC[C@H]1c1nn(C)c(=O)n1Cc1ccccc1,-7%,0.98
C#CCCC1(CCC(=O)N2CCC(CN3CCc4ccccc43)CC2)N=N1,1%,-0.2
Cn1ccc(NC(=O)CCS(=O)(=O)c2ccc3c(c2)CCC3)n1,-9%,0.95
Cc1sc(C)c(CNCC(C)C)c1CNCC(C)C,10%,-1.04
O=C(NC1CCCC1)C(F)(F)C(F)(F)C(=O)NC1CCCC1,0%,0.05
C[C@H](CCC(=O)Nc1cccc2[nH]ccc12)[C@H]1CC[C@H]2[C@@H]3CC[C@@H]4C[C@H](O)CC[C@]4(C)[C@H]3C[C@H](O)[C@]12C,-10%,1.2
CC(C)(C)c1cn2nc(N3C4CCC3CC(O)C4)sc2n1 (centres undefined),-5%,0.62
Cc1nnc(N2CCN(C)C(=O)C2)c2ccccc12,-5%,0.65
O[C@@H](CNc1ncnc2sccc12)c1ccc(Cl)c(F)c1,28%,-3.21
O=C(NCCCN1CCCCC1)[C@@H]1CCN(c2ccc(Cl)cc2)C1=O,-10%,1.02
CCCOc1ccc(CN[C@@H](C)CC)cc1Cl,-21%,3.16
CC(=O)N1CCC(NS(=O)(=O)c2ccc3ccccc3c2)CC1,-6%,1.15
Cc1cnccc1CN(C)c1nc(-c2cccnc2)nc2c1c(C)nn2C,-8%,0.75
CCN(CC)c1onc(-c2ccccc2)c1CN(Cc1ccccc1)C(=O)c1cccc(Br)c1,-10%,1.5
CCCNC(=O)[C@H](C)OC(=O)c1cc(OC)no1,-16%,2.39
CC(C)C1CCN(C(=O)Nc2ccns2)CC1,-5%,0.94
Cc1nn(C)c2c1N(CC1=CCCCC1)CCS2(=O)=O,1%,-0.13
CCn1nccc1C(=O)N1CC[C@H]2C(=O)N(Cc3ccccc3)CCN2CC1,-14%,1.88

Structure (SMILES),% Inhibition,Z score
O=C(c1cnccn1)N1CCc2sccc2[C@H]1c1ccccc1,-4%,0.49
CC(C)c1cncnc1N[C@H]1CCOC[C@@H]1OCC1CC1,-5%,0.83
O=C(c1cc2n(n1)CCN(Cc1nc3c(s1)CCCC3)C2)N1CCCC1,-2%,0.23
CC(C)CN1CCC[C@H]1CNC1CCCCC1S(C)(=O)=O (some centres undefined),-15%,1.9
COC(=O)Cc1nc(C(C)C)nn1-c1ccc2c(c1)CCC2,-10%,1.2
CC(=O)c1c(F)cccc1N1CCN2CCCC[C@H]2C1,34%,-3.88
CC(C)(C)C1CCC(O)(CNC(=O)c2cscn2)CC1 (centres undefined),-7%,0.71
Cc1ccc(CN[C@@H]2c3ccccc3CC23CCOCC3)nc1,-6%,0.78
O=C(NCc1ccncc1)[C@H]1CCCN(c2ncnc3c2oc2ccccc23)C1,-13%,1.55
CC(CO)C1CCN(C(=O)[C@@H]2CCCC[C@@H]2N2CCCC2=O)CC1 (some centres undefined),-7%,1.14
Cc1cc2sc(NC(=O)NC(C)(C)CO)nc2s1,-11%,1.41
Cc1ccccc1S(=O)(=O)Nc1ccc(N2CCNCC2)c(C(=O)NC[C@H]2CCCO2)c1,3%,-0.37
C[C@@H]1CN(C(=O)c2c[nH]nc2C(C)(C)C)CCN(C2CC2)C1,3%,-0.54
CCS(=O)(=O)C[C@H](C)N(C)C(=O)c1cc(C)no1,-1%,0.17
O=S(=O)(c1cccc(F)c1)N1CCC(OC2CCN(Cc3ccccc3)CC2)CC1,3%,-0.33
Fc1ccc(N2Cc3ccccc3C2)nc1,17%,-2.1
COc1ccc(-n2ncnc2CCn2ccccc2=O)cc1,1%,-0.08
CC(C)(C(=O)O)c1cnc(NCc2n[nH]c3c2CCC3)nc1N1CCOCC1,-5%,0.52
CCn1cnc2c1CCN(C(=O)Nc1cc(C3(C)CCCC3)on1)C2,-1%,0.08
Cc1cc(C(=O)Nc2ccccc2N2CCCC2=O)c(C)n1Cc1ccco1,17%,-3.2
COC[C@H]1CCCN(C(=O)c2ccc(OC3CCN(C)CC3)c(OC)c2)C1,-5%,0.76
